Assay results as given in PubChem BioAssay AID463173 (ICCB-Longwood Screening Facility, Harvard Medical School, 2010).
Among all 52,000 compounds or so, about 1,700 (3.3%) were called active. Cut-off read from the data, not from the text of the source: active = survival mostly below about 52% (no sharp cut-off); inactive = mostly above about 56%. The list shows a part of the results.

What follows are compounds tested on Wild type (assay: S. aureus survival, RN4220 and DeltatarO strains – OD600, teichoic acid synthesis inhibitors, primary screen (AID 463173)). Settings: S. aureus RN4220 wild type/DeltatarO growth, OD600, 18 h, stronger effect = lower value, screened at 18.75 µg/mL (by protocol).

Row | Structure (SMILES) | survival
1 | CCOc1ccccc1CNC(=O)c1cc(-c2ccc(Cl)s2)nc2ccccc12 | inactive: 90%
2 | CCOC(=O)c1ccc(NC(=O)C2CCN(S(=O)(=O)c3ccc4c(c3)CCCC(=O)N4)CC2)cc1 | inactive: 59%
3 | Cc1cc(OCC(=O)NCC2(N3CCN(C)CC3)CCCCC2)cc(C)c1Cl | inactive: 80%
4 | Cc1c(Cl)cccc1N=C1NC(=O)CS1 | inactive: 116%
5 | COc1ccc(-c2cc(NCc3ccc(F)cc3)n3cnnc3n2)cc1 | inactive: 72%
6 | O=C(Cc1ccccc1)Nc1sc2c(c1C(=O)Nc1ccccc1Cl)CCC2 | inactive: 46%
7 | CCn1c(SCc2ccccc2)nnc1-c1cccnc1 | inactive: 99%
8 | Cc1nn(CC(=O)NCCc2ccc(Cl)cc2)c(=O)c2cc3cc(F)ccc3n12 | inactive: 74%
9 | CCCN1C(=O)C(Cc2nc3ccccc3c(=O)n2CC)c2ccccc21 (stereo not drawn) | inactive: 82%
10 | CCCc1cc(N2CCN(c3cc(Cl)ccc3C)CC2)n2cnnc2n1 | inactive: 41%
11 | COc1ccc(CNC(=O)Cn2nc(C)c3nn(-c4ccc(Cl)cc4)c(C)c3c2=O)cc1 | inactive: 69%
12 | Cc1cc(N2CCCC(O)C2)nc(C)n1 (stereo not drawn) | inactive: 113%
13 | Cc1ccc(NC(=O)CCc2nnc3n(CC(C)C)c(=O)c4ccccc4n23)cc1C | inactive: 92%
14 | Cc1ccc(-n2nc3c(N4CCC(C(=O)N5CCCCC5)CC4)nnc(C)c3c2C)cc1 | inactive: 94%
15 | O=S(=O)(c1ccccc1)c1nnn2c1nc(NCc1cccs1)c1sccc12 | inactive: 87%
16 | Cc1ccc2oc(C(=O)Nc3c(C(=O)Nc4ccccc4)oc4ccccc34)cc(=O)c2c1 | inactive: 81%
17 | CCCOc1ccc(N2CC(C(=O)Nc3cccc(Cl)c3Cl)CC2=O)cc1 (stereo not drawn) | inactive: 160%
18 | CCOc1ccc(CCNC(=O)CN2C(=O)COc3ccc(S(=O)(=O)N4CCC(C)CC4)cc32)cc1 | inactive: 73%
19 | Cc1ccc(NC(=O)CCn2cccn2)cc1Cl | inactive: 68%
20 | Cc1cc(C)cc(Nc2cc(-c3ccccc3)nc(C)n2)c1 | active: 10%

Row | Structure (SMILES) | survival
21 | c1ccc2c(c1)oc1c(NC3CCCC3)ncnc12 | inactive: 123%
22 | COc1ccc(NC(=O)Cn2c(=O)n(-c3ccccc3)c(=O)c3c4c(sc32)CCCC4)cc1 | inactive: 110%
23 | COC(=O)c1c(NC(=O)c2cc3nc(-c4ccc(OC)cc4)cc(C(F)(F)F)n3n2)sc2c1CCCC2 | inactive: 73%
24 | Cc1ccc(NC2=CC(c3ccccc3F)N(c3ccc(C)cc3)C2=O)cc1 (stereo not drawn) | inactive: 61%
25 | CCCCN(C)c1nnc(NC(=O)Nc2cccc(C(C)=O)c2)s1 | inactive: 109%
26 | O=C(CN1C=NS(=O)(=O)c2ccccc21)Nc1ccc(F)cc1 | inactive: 82%
27 | COc1ccc(-c2cc3nc(C)c(CCC(=O)N4CCN(c5cccc(Cl)c5)CC4)c(C)n3n2)c(OC)c1 | inactive: 66%
28 | O=C(NCc1cccs1)c1ccc2c(c1)N(Cc1ccccc1Cl)C(=O)c1ccccc1S2 | inactive: 69%
29 | COc1cccc(CNC(=O)C2CCN(c3ncccn3)CC2)c1 | inactive: 102%
30 | CCOc1ccccc1NC(=O)C(Cc1ccccc1)NS(=O)(=O)c1ccc2c(c1)oc(=O)n2C (stereo not drawn) | inactive: 73%
31 | CC(C)Cn1c(=O)c2ccccc2n2c(CCC(=O)NCc3ccccc3Cl)nnc12 | inactive: 87%
32 | COc1ccc(-c2cc(C(=O)OCC(=O)c3ccc(C)cc3)c3cccc(Cl)c3n2)cc1 | inactive: 82%
33 | Cc1ccccc1-c1ncnn1-c1sc2c(c1C#N)CCCCC2 | inactive: 65%
34 | O=C1NC(=O)C2C3c4ccccc4C(c4ccccc43)C12 (stereo not drawn) | inactive: 117%
35 | C=CCn1c(SC)nc2c1c(=O)[nH]c(=O)n2C | inactive: 99%
36 | CN(C(=O)c1cc(-c2ccccc2)on1)C1CCCCC1 | inactive: 118%
37 | COc1ccc(CNC(=O)c2cc3cc(C)ccc3n2C)cc1 | inactive: 89%
38 | CC(=O)NCCNC(=O)CCCc1nnc2n(C)c(=O)c3sccc3n12 | inactive: 86%
39 | COc1ccc(-n2nnnc2SCSc2nnnn2-c2ccc(OC)cc2)cc1 | inactive: 113%
40 | Cc1sc2c(c1C)c(=O)n(CCc1ccccc1)c(=O)n2Cc1cccc(F)c1 | active: 9%

Row | Structure (SMILES) | survival
41 | O=C(NCc1ccccc1Br)c1ccc2nc(N3CCCCC3)sc2c1 | inactive: 81%
42 | CCCCN(CCCC)C(=O)CN(C)S(=O)(=O)c1ccc2c(c1)c(=O)n(C)c(=O)n2C | inactive: 124%
43 | CC(Nc1ccc(-c2nc(-c3ccncc3)no2)cc1[N+](=O)[O-])c1ccccc1 (stereo not drawn) | inactive: 87%
44 | O=C(Nc1cc(F)ccc1F)C1CCN(c2nc3ccccc3n3cccc23)CC1 | inactive: 84%
45 | COCCNC(=O)Cn1cc(/C=C(\C#N)C(N)=O)c2ccccc21 | inactive: 114%
46 | Cc1ccc(-n2c(=O)c3c(c4cc(C)ccc4n3C)n(CC(=O)NCc3ccccc3Cl)c2=O)cc1 | inactive: 66%
47 | COc1ccc2oc(=O)cc(CN3CCN(c4ccc(F)cc4)CC3)c2c1 | inactive: 72%
48 | CCCCNC(=O)C(CC)Sc1nnc(-c2cccc(F)c2)c(-c2cccc(F)c2)n1 (stereo not drawn) | inactive: 71%
49 | Cc1cccc(C(=O)Nc2ccc(-c3nc4ccccc4s3)cc2Cl)c1 | inactive: 59%
50 | CCCCOC(=O)c1ccc(Nc2ncnc3[nH]ncc23)cc1 | inactive: 65%
51 | COc1ccc(CCC(=O)NC2CC(=O)N(c3ccc(C)cc3)C2)cc1 (stereo not drawn) | inactive: 69%
52 | Cc1cccc(NC(=O)Cn2c(=O)n(-c3ccccc3Cl)c(=O)c3c(C)c(C(=O)N(C)C)sc32)c1 | inactive: 72%
53 | CCOC(=O)c1ccc(NC(=O)CN(c2ccc(C)cc2)S(=O)(=O)c2c(C)noc2C)cc1 | inactive: 110%
54 | Cc1nc2c(C(=O)NCCc3ccc(Cl)cc3)cnn2c(C)c1Cc1c(F)cccc1Cl | inactive: 59%
55 | Oc1ccccc1C1OCC(C2CC=CCC2)CO1 (stereo not drawn) | inactive: 110%
56 | Cc1cc(C)cc(N2CC(c3nc(-c4ccccc4C)no3)CC2=O)c1 (stereo not drawn) | inactive: 95%
57 | CC(=O)Nc1c(C)nn(-c2ccccc2)c1N1CCC(C(=O)NCc2ccc(Cl)cc2)CC1 | inactive: 81%
58 | Cc1ccccc1CNC(=O)C(C)n1nc(C)n2c(cc3occc32)c1=O (stereo not drawn) | inactive: 64%
